About 4,300 (8.3%) of roughly 52,000 compounds were called active. No stated cut-off is given here; in the data, active means survival mostly below about 52% (no sharp cut-off); inactive means mostly above about 56%. This is one part of the list.
These compounds were tested on DeltatarO mutant (assay: growth inhibition of S. aureus wild type versus tarO mutant, primary screen, teichoic acid synthesis inhibitors, RN4220, OD600 (AID 463173)). Conditions: OD600, 18 h, hits give low values, screened at 18.75 µg/mL (by protocol).

SMILES	survival
COc1ccc(C)cc1NC(=O)CCNS(=O)(=O)c1cccc2nonc12	active: 43%
O=C(CSc1ncn[nH]1)Nc1ccc(F)cc1	inactive: 72%
Cc1cc(Cl)ccc1OCC(=O)N(Cc1ccc(N(C)C)cc1)CC1CCCO1 (centres undefined)	inactive: 99%
CC(C)Nc1ccc(-c2nc(-c3ccccn3)no2)cc1[N+](=O)[O-]	active: 38%
CCOc1ccccc1NC(=O)c1ccc2c(Cl)c3c(nc2c1)CCCC3	active: 35%
CC(=O)Nc1ccc(NC(=O)CCC(=O)c2ccc(C)cc2)cc1	inactive: 81%
CCOc1ccc(-c2nnc(SCC(=O)NCCc3ccccc3)nc2-c2ccc(OCC)cc2)cc1	inactive: 69%
COc1cccc(CNc2nc3c(-c4cccc(C)c4)nnn3c3ccccc23)c1	inactive: 96%
Cc1cc(NC(=O)C(C)(C)Oc2ccc(Cl)cc2)cc(-c2nc3ncccc3o2)c1O	inactive: 82%
Cc1ccc(C(=O)Nc2ccc(C(=O)OCc3cc(=O)n4c5c(sc4n3)CCCC5)cc2)cc1	inactive: 83%
Cc1c(-c2ccccc2)n(-c2ccccc2O)c2nc3c(c(=O)n(C)c(=O)n3C)n12	inactive: 94%
O=S(=O)(c1ccc(-c2cnc(C3CC3)o2)cc1)N1CCN(c2cccc(Cl)c2)CC1	inactive: 75%
COCCn1c(COc2cccc(OC)c2)nnc1SCC(=O)NC1CCCC1	inactive: 82%
CCOc1ccccc1C(=O)Nc1cc(-c2ccc(C)cc2)no1	inactive: 71%
COc1ccccc1CNC(=O)c1cnc2sc(N3CCOCC3)nn2c1=O	inactive: 107%
COc1ccc(N2CCN(C(=O)Cn3nc(Cc4cccnc4)c4ccccc4c3=O)CC2)cc1	inactive: 108%
Cc1ccc(Nc2ncnc3c2nc2n3CCCC2)c(Br)c1	inactive: 115%
COc1ccc(NC(=O)NCC2CCN(Cc3ccccc3F)CC2)c(OC)c1	inactive: 96%
COC(=O)c1cc(S(=O)(=O)N2CCN(c3ccc(F)cc3)CC2)cn1C	active: -5%
Cn1cc(C(=O)NCCc2ccc(Cl)cc2)c(=O)c2cc(S(=O)(=O)N3CCCCC3)ccc21	inactive: 65%
Cc1ccc2c(c1)c(=O)c(S(=O)(=O)c1ccc(C)c(C)c1)cn2CC(=O)Nc1ccccc1	inactive: 74%
O=C(c1ccc2c(c1)N(Cc1ccccc1)C(=O)c1ccccc1S2=O)N1CCC(Cc2ccccc2)CC1 (centres undefined)	inactive: 77%
CCCOc1ccc(C2=NC(c3ccc(F)cc3)=Nc3ccc(OC)cc3N2)cc1	inactive: 58%

SMILES	survival
CCc1cccc(C)c1NC(=O)C1=C(C)C(=O)OC12CCC(C)CC2 (centres undefined)	inactive: 98%
COc1ccccc1Nc1ncc(C(=O)Nc2ccc(OC)c(OC)c2)c2ccccc12	active: 43%
CCN(C(=O)c1cc2cc(Br)cc(OC)c2oc1=O)c1ccccc1	inactive: 80%
O=C(COC(=O)c1cccs1)Nc1ccccc1	inactive: 84%
COc1cccc(C2c3c(-c4ccccc4O)n[nH]c3C(=O)N2Cc2cccnc2)c1 (centres undefined)	inactive: 84%
O=S(=O)(Nc1ccc(-c2ccc(N3CCCC3)nn2)cc1)c1ccc(OC(F)(F)F)cc1	active: -4%
O=C(NC1CCCCCC1)c1ccc(CS(=O)c2ccc(Br)cc2)o1 (centres undefined)	inactive: 72%
O=C(CSCc1ccccc1Cl)N/N=C/c1ccc(O)cc1O	inactive: 72%
COc1ccc(-n2ccn(CC(=O)Nc3ccc(C)c(C)c3)c(=O)c2=O)cc1OC	inactive: 81%
COc1ccc(-c2cn3c(n2)sc2cc(C(=O)Nc4ccc(F)cc4Cl)ccc23)cc1	inactive: 61%
CCOc1cc2[nH]c(=O)n(CCCC(=O)NCc3ccc(OC)cc3)c(=O)c2cc1OCC	inactive: 67%
COC(=O)c1c(-c2cccs2)csc1NC(=O)c1cc(OC)c(OC)c(OC)c1	inactive: 64%
CC(C)CCNC(=O)c1nn(C)c2c1CSc1ccccc1-2	inactive: 70%
CC1CCCN(S(=O)(=O)c2cc(C(=O)NCc3ccccc3Cl)n(C)c2)C1 (centres undefined)	inactive: 79%
O=C(c1ccc(-n2cnnn2)cc1)N(C1CCCCC1)C1CCCCC1	inactive: 93%
Cc1ccc(F)cc1NC(=O)CCSc1nc(-c2ccco2)cc(C(F)(F)F)n1	inactive: 48%
C=Cc1ccc(Cn2c(C(=O)O)c(CNCc3ccccc3)c3ccc(OC)cc32)cc1	inactive: 104%
Cc1ccc(NC(=O)C(=O)NCC(c2cccnc2)N2CCc3ccccc3C2)cc1 (centres undefined)	inactive: 85%
CCc1ccc(-n2nc(C)c3c(C(=O)N4CCN(c5cccc(Cl)c5)CC4)cc(C)nc32)cc1	inactive: 99%
CCOC(=O)c1ccc(NC(=O)CCc2c(C)nc3c(c(C)nn3C(C)(C)C)c2C)cc1	active: 55%
Cc1nn(CC(=O)N2CCN(c3cccc(Cl)c3)CC2)c(=O)c2c1sc1ccccc12	inactive: 77%
O=c1sc(Nc2ccccc2)nc2ccccc12	inactive: 80%
COc1cc(OC)c(NC(=O)NCc2cccn2Cc2ccccc2)cc1Cl	inactive: 94%

SMILES	survival
CCOc1cc(C(=O)OCc2cc(=O)n3nc(C4CC4)sc3n2)cc(OCC)c1OCC	inactive: 79%
CC(C)CCNC(=O)c1ccc(Cn2c(SCC(N)=O)nc3ccccc3c2=O)cc1	active: 46%
Nc1ncc(Cc2ccccc2)s1	inactive: 75%
CCc1ccccc1NC(=O)Cn1c(=O)n(-c2ccc(C)c(C)c2)c(=O)c2oc3ccccc3c21	inactive: 73%
Cc1ccc(NC(=O)CSCc2cnn(-c3ccccc3)c2-n2cccc2)c(Cl)c1	inactive: 63%
COc1ccc(CCNc2nc3ccccc3c3nc(-c4cccc(C)c4)nn23)cc1OC	active: 20%
COc1cc(Br)ccc1C1C(C(=O)Nc2ccc(C)cc2C)=C(C)Nc2nnnn21 (centres undefined)	inactive: 182%
Cc1ccc(CCNC(=O)c2cccc(Nc3nc4ccccc4nc3-n3nc(C)cc3C)c2)cc1	inactive: 57%
COc1ccc(S(=O)(=O)NCCc2sc(-c3cccc(C)c3)nc2C)cc1	inactive: 96%
CCCCCn1c(-c2cccc(C)c2)nc2ccccc21	active: -2%
O=C(Nc1ccc2c(c1)OCO2)c1cc(-c2ccc(Cl)cc2)on1	inactive: 69%
COc1ccccc1OCC(=O)Nc1c(C(=O)c2ccc(C)cc2)oc2ccccc12	inactive: 82%
CN(C)C1(CNC(=O)COc2ccc(C(C)(C)C)cc2)CCCCC1	inactive: 98%
CCOC(=O)c1c(C)[nH]c(C)c1S(=O)(=O)N1CCC(C(=O)NCc2ccc(N(C)C)cc2)CC1	inactive: 79%
COc1ccc(OC)c(CCNC(=O)C(C)n2c(C)c3cnn(-c4ccccc4)c(=O)c3c2C)c1 (centres undefined)	inactive: 82%
COc1ccccc1CNS(=O)(=O)c1ccc(N2CCCCS2(=O)=O)cc1	inactive: 77%
COc1ccc(Cl)cc1C(=O)Nc1c2c(nn1-c1ccc(Cl)cc1)CS(=O)(=O)C2	inactive: 90%
Cc1cc(C)cc(-n2ccnc(NCc3ccc(F)cc3)c2=O)c1	inactive: 96%
Cc1ccc(S(=O)(=O)NCCc2nnc3ccc(SCC(=O)Nc4ccc(OC(F)(F)F)cc4)nn23)cc1	inactive: 94%
O=C1COc2cc(S(=O)(=O)CCC(=O)N3CCN(c4ccccc4)CC3)c(Cl)cc2N1	inactive: 100%
CCOc1ccc(NC(=O)Cn2c(=O)c(CNc3ccccc3)cc3cc4c(cc32)OCCO4)cc1	inactive: 55%
CCCc1ccc(-c2ccc(C(=O)Oc3ccc(Br)cc3)cc2)nc1	inactive: 136%
COC(=O)c1ccc(CSc2nc3c([nH]c4ccccc43)c(=O)n2-c2cc(C)cc(C)c2)o1	active: 8%

SMILES	survival
CN(C(=O)Cn1ncc2c1-c1ccccc1OC2)c1ccc(Br)cc1	inactive: 66%
Cc1ccc2oc(-c3ccc(NC(=O)c4cccc(F)c4)c(C)c3)nc2c1	inactive: 99%
CC(=O)N1c2c(cc(Br)cc2S(=O)(=O)NCc2ccccc2Cl)CC1C (centres undefined)	active: 46%
COc1ccc(NC(=O)c2cc(C)nc3c2c(C)nn3-c2cccc(Cl)c2C)c(OC)c1	inactive: 88%
COc1cc(NC(=O)N2CCC(CN3CCc4ccccc4C3)CC2)cc(OC)c1	inactive: 70%
Cc1ccc(-c2nnc(Nc3cccc(O)c3)c3ccccc23)cc1S(=O)(=O)N1CCCCC1	inactive: 60%
CCOc1ccc(OCC)c(NC(=O)c2csc3c2CCCC3)c1	active: -2%
CCOc1ccc(CNC(=O)C2=Cc3cc(Br)ccc3OC2)cc1OC	inactive: 71%
COc1ccc(Cl)cc1NC(=O)CSc1nc(=O)[nH]c2c1CCCC2	inactive: 76%
COc1ccccc1NC(=O)c1oc2ccccc2c1NC(=O)COc1ccccc1OC	inactive: 87%
CCOc1ccc(NC(=O)Cn2cc(C(=O)c3ccccc3)c(=O)c3cc4c(cc32)OCO4)cc1	inactive: 72%
Cc1ccc(Cn2c(=O)n(-c3ccc(C)c(C)c3)c(=O)c3c(C)c(C)sc32)cc1	inactive: 71%
COc1ccc(OCC2c3cc(OC)c(OC)cc3CCN2C(=O)COc2ccc(Cl)cc2Cl)cc1 (centres undefined)	inactive: 85%
CC(C)NC(=O)C(c1ccccc1)N1Cc2ccccc2C1=O (centres undefined)	inactive: 101%
CC(C)c1ccc2occ(CC(=O)Nc3ccccc3Cl)c2c1	inactive: 85%
Cc1cc(C)nc(/N=C(\N)N2CCc3ccccc32)n1	inactive: 79%
Cc1ccc(C)c(NC(=O)Cn2c(=O)n(Cc3ccc4c(c3)OCO4)c(=O)c3oc4ccccc4c32)c1	inactive: 74%
CC1=C(C(N)=O)C(c2cccc(C)c2)n2nc(-c3cccc(C)c3)nc2N1 (centres undefined)	inactive: 66%
COc1ccc(-c2noc(CSc3nc(C)cc(=O)[nH]3)n2)cc1OC	inactive: 76%
Cc1ccc(CSc2nnc(-n3c(=O)c(C#N)cc4c(=O)n5cc(C)ccc5nc43)s2)cc1	inactive: 94%
